Source: patent US20260049151A1 (SHENGHE CHINA BIOPHARMACEUTICAL, published 2026)

T1: Human-TNFR2-His (human, UniProt P20333 23-257)
T1 construct: Bought protein; also called human TNFR2 protein; TNFR2 protein; not shown: His tag
T1 sequence (looked up): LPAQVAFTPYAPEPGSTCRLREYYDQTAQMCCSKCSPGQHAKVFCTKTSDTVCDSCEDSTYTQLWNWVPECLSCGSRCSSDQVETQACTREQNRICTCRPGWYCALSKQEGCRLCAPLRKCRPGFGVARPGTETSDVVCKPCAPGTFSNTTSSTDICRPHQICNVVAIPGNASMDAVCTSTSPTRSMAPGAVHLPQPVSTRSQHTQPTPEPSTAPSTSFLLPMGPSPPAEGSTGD

B1: Antibody O5 (bispecific antibody, IgG1)
chain: EVQLVESGGGLVQPGGSLRLSCAASGSRLDYYAVAWFRQAPGKEREEVSCITYSGGSTNYAESVKGRFTISRDNSKNTLYLQMNSLRAEDTAVYYCTTEPYGSSCPLSGYDTWGQGTLVTVSS[… human IgG1 Fc …]GGGGSGGGGSGGGGSGGGGSQVQLQESGPGLVKPSETLSLTCTVSGSSLTSYGVHWVRQPPGKGLEGLGVIWPGGSTNYNSALMSRVTISKDNSKSQVSLKMSSLTAADTAVYYCARVTGTWYFDVWGQGTTVTVSSGGGGSGGGGSGGGGSDIQMTQSPSSLSASLGDRVTISCSASQGISNYLNWYQQKPDGTVKLLIYYTSTLHSGVPSRFSGSGSGTDYTLTISSLQPEDIATYYCQQYSKLPWTFGGGTKLEIK
notes: IgG1 subtype; two peptide chains
B2: Antibody O8 (bispecific antibody, IgG1)
chain: EVQLVESGGGLVQPGGSLRLSCAASGSRLDYYAVAWFRQAPGKEREEVSCITYSGGSTNYAESVKGRFTISRDNSKNTLYLQMNSLRAEDTAVYYCTTEPYGSSCPLSGYDTWGQGTLVTVSS[… human IgG1 Fc …]GGGGSGGGGSGGGGSGGGGSQVQLQESGPGLVKPSETLSLTCTVSGSSLTSYGVHWVRQPPGKCLEGLGVIWPGGSTNYNSALMSRVTISKDNSKSQVSLKMSSLTAADTAVYYCARVTGTWYFDVWGQGTTVTVSSGGGGSGGGGSGGGGSGGGGSDIQMTQSPSSLSASLGDRVTISCSASQGISNYLNWYQQKPDGTVKLLIYYTSTLHSGVPSRFSGSGSGTDYTLTISSLQPEDIATYYCQQYSKLPWTFGCGTKLEIK
notes: IgG1 subtype; two peptide chains; cysteine introduced in VH(4-1BB) and VL(4-1BB)
B3: Antibody O6 (bispecific antibody, IgG1)
chain: EVQLVESGGGLVQPGGSLRLSCAASGSRLDYYAVAWFRQAPGKEREEVSCITYSGGSTNYAESVKGRFTISRDNSKNTLYLQMNSLRAEDTAVYYCTTEPYGSSCPLSGYDTWGQGTLVTVSS[… human IgG1 Fc …]GGGGSGGGGSGGGGSGGGGSQVQLQESGPGLVKPSETLSLTCTVSGSSLTSYGVHWVRQPPGKGLEGLGVIWPGGSTNYNSALMSRVTISKDNSKSQVSLKMSSLTAADTAVYYCARVTGTWYFDVWGQGTTVTVSSSPNSASHSGSAPQTSSAPGSQDIQMTQSPSSLSASLGDRVTISCSASQGISNYLNWYQQKPDGTVKLLIYYTSTLHSGVPSRFSGSGSGTDYTLTISSLQPEDIATYYCQQYSKLPWTFGGGTKLEIK
notes: as for B1
B4: Antibody O7 (bispecific antibody, IgG1)
chain: EVQLVESGGGLVQPGGSLRLSCAASGSRLDYYAVAWFRQAPGKEREEVSCITYSGGSTNYAESVKGRFTISRDNSKNTLYLQMNSLRAEDTAVYYCTTEPYGSSCPLSGYDTWGQGTLVTVSS[… human IgG1 Fc …]GGGGSGGGGSGGGGSGGGGSQVQLQESGPGLVKPSETLSLTCTVSGSSLTSYGVHWVRQPPGKGLEGLGVIWPGGSTNYNSALMSRVTISKDNSKSQVSLKMSSLTAADTAVYYCARVTGTWYFDVWGQGTTVTVSSGGGSAAADIQMTQSPSSLSASLGDRVTISCSASQGISNYLNWYQQKPDGTVKLLIYYTSTLHSGVPSRFSGSGSGTDYTLTISSLQPEDIATYYCQQYSKLPWTFGGGTKLEIK
notes: as for B1

Columns and labels:
Human-TNFR2-His = molecular target: T1, Human-TNFR2-His; experiment: ELISA: Human-TNFR2-His coated (0.1 ug/mL), antibody titrated, goat anti-human IgG Fc detection (Example 12)
Description: It was blocked with 3% skim milk powder at 300 μL/well, and incubated at 37° C. for 1 h. The blocking solution was poured off, washed 4 times with a plate washer, and patted dry on a flat paper. Negative control and positive control were set up. […] The liquid in the well was discarded, washed 4 times with a plate washer, and patted dry on a flat paper. […] It was washed 6 times with a plate washer, and patted dry on a flat paper. TMB color developing solution was added at 100 μL/well, and wrapped with aluminum foil. Color development was performed at 37° C. in the dark for 8 min. […] Readings were taken at 450 nm on an ELISA reader.

Human 4-1BB His = molecular target: T2, Human 4-1BB His (human, UniProt Q07011 24-186); experiment: ELISA: Human 4-1BB His coated (0.2 ug/mL), antibody titrated, goat anti-human IgG detection (Example 13)
Sequence of Human 4-1BB His (Q07011 24-186 limits assumed): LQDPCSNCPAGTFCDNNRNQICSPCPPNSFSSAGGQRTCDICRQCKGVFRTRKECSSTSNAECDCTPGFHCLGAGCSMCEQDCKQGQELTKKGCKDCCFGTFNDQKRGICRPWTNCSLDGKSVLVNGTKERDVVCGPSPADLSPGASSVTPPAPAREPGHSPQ
T2 construct: Bought protein; lots 198-2146F1-W6 and 2407c-214FF1-YC; also called human 4-1BB protein; 4-1BB protein; not shown: His tag
Description: It was blocked with 3% skim milk powder at 300 μL/well, and incubated at 37° C. for 1 h. The blocking solution was poured off, washed 4 times with a plate washer, and patted dry on a flat paper. Negative control and positive control were set up. […] The liquid in the well was discarded, washed 4 times with a plate washer, and patted dry on a flat paper. […] It was washed 6 times with a plate washer, and patted dry on a flat paper. TMB color developing solution was added at 100 μL/well, and wrapped with aluminum foil. Color development was performed at 37° C. in the dark for 8 min. Termination solution 1M HCl was added to terminate the color development reaction at 100 μL/well. Readings were taken at 450 nm on an ELISA reader.

Row | Binder | EC50 (read off the curve) (Human-TNFR2-His) | binding result (Human 4-1BB His) | EC50 (read off the curve) (Human 4-1BB His)
1 | B1 | ~0.04 µg/mL | binds | 
2 | B2 | ~0.02 µg/mL |  | ~0.008 µg/mL
3 | B3 | ~0.05 µg/mL |  | ~0.09 µg/mL
4 | B4 | ~0.03 µg/mL | binds | 
